# Measurements: the supplement of paper PMC8728848
# The list shows a part of the results.
# B1: Gal 7 (Homo sapiens) (protein)
# chain: MSNVPHKSSLPEGIRPGTVLRIRGLVPPNASRFHVNLLCGEEGGSDAALHFNPRLDTSEVVFNSKEGGSWGREESGPGVPFGRGQPFEVLIIASDDGFKAVVGDAQYHHFRHRLPLARVRLVEVGGDVQLDSVRIF
# Assays:
# Test in all cases: glycan array binding signal (z-score within array); higher = stronger binding
# Details in all cases: glycan notation: IUPAC condensed, linker removed; mutation: R74S
# [1] = biological target: Neu5Ac(a2-3)Gal(b1-4)GlcNAc(b1-3)[Neu5Ac(a2-3)Gal(b1-4)GlcNAc(b1-6)]GalNAc
# How it was run: (§1)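 Columns mapping to the same glycan were averaged after glycan names were converted to IUPAC-condensed notation. The data come from 3228 arrays in the Consortium for Functional Glycomics database, limited to those with an available protein sequence. Binding is reported as a within-array Z-score averaged across arrays of one protein sequence and across linkers.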
# [2] = biological target: Neu5Ac(a2-3)Gal(b1-4)GlcNAc(b1-6)GalNAc
# How it was run: as §1
# [3] = biological target: Neu5Ac(a2-3)Gal(b1-4)GlcNAc(b1-6)[Gal(b1-3)]GalNAc
# How it was run: as §1
# [4] = biological target: Neu5Ac(a2-3)Gal(b1-4)GlcNAc(b1-6)[Neu5Ac(a2-3)Gal(b1-3)]GalNAc
# How it was run: as §1
# [5] = biological target: Neu5Ac(a2-3)Gal(b1-4)GlcNAc6S
# How it was run: as §1
# [6] = biological target: Neu5Ac(a2-3)Gal(b1-4)[Fuc(a1-3)]GlcNAc
# How it was run: as §1
# [7] = biological target: Neu5Ac(a2-3)Gal(b1-4)[Fuc(a1-3)]GlcNAc(b1-2)Man
# How it was run: as §1
# [8] = biological target: Neu5Ac(a2-3)Gal(b1-4)[Fuc(a1-3)]GlcNAc(b1-3)Gal
# How it was run: as §1
# [9] = biological target: Neu5Ac(a2-3)Gal(b1-4)[Fuc(a1-3)]GlcNAc(b1-3)Gal(b1-4)GlcNAc
# How it was run: as §1
# [10] = biological target: Neu5Ac(a2-3)Gal(b1-4)[Fuc(a1-3)]GlcNAc(b1-3)Gal(b1-4)[Fuc(a1-3)]GlcNAc(b1-3)Gal(b1-4)[Fuc(a1-3)]GlcNAc
# How it was run: as §1
# [11] = biological target: Neu5Ac(a2-3)Gal(b1-4)[Fuc(a1-3)]GlcNAc(b1-3)GalNAc
# How it was run: as §1
# [12] = biological target: Neu5Ac(a2-3)Gal(b1-4)[Fuc(a1-3)]GlcNAc(b1-6)[Gal(b1-3)]GalNAc
# How it was run: as §1
# [13] = biological target: Neu5Ac(a2-3)Gal(b1-4)[Fuc(a1-3)]GlcNAc(b1-6)[Neu5Ac(a2-3)Gal(b1-3)]GalNAc
# How it was run: as §1
# [14] = biological target: Neu5Ac(a2-3)Gal(b1-4)[Fuc(a1-3)]GlcNAc6S
# How it was run: as §1
# [15] = biological target: Neu5Ac(a2-3)Gal6S(b1-4)GlcNAc
# How it was run: as §1
# [16] = biological target: Neu5Ac(a2-3)Gal6S(b1-4)[Fuc(a1-3)]GlcNAc
# How it was run: as §1
# Neu5Ac(a2-3)GalNAc = biological target: Neu5Ac(a2-3)GalNAc
# How it was run: as §1
# [17] = biological target: Neu5Ac(a2-3)GalNAc(b1-4)GlcNAc
# How it was run: as §1
# [18] = biological target: Neu5Ac(a2-3)[GalNAc(b1-4)]Gal(b1-4)Glc
# How it was run: as §1
# [19] = biological target: Neu5Ac(a2-3)[GalNAc(b1-4)]Gal(b1-4)GlcNAc
# How it was run: as §1
# [20] = biological target: Neu5Ac(a2-3)[GalNAc(b1-4)]Gal(b1-4)GlcNAc(b1-3)GalNAc
# How it was run: as §1
# [21] = biological target: Neu5Ac(a2-3)[Neu5Ac(a2-6)]GalNAc
# How it was run: as §1
# Neu5Ac(a2-6)Gal = biological target: Neu5Ac(a2-6)Gal
# How it was run: as §1
# [22] = biological target: Neu5Ac(a2-6)Gal(b1-3)GlcNAc(b1-3)[Gal(b1-4)GlcNAc(b1-6)]Gal(b1-4)Glc
# How it was run: as §1
# Neu5Ac(a2-6)Gal(b1-4)Glc = biological target: Neu5Ac(a2-6)Gal(b1-4)Glc
# How it was run: as §1
# [23] = biological target: Neu5Ac(a2-6)Gal(b1-4)GlcNAc
# How it was run: as §1
# [24] = biological target: Neu5Ac(a2-6)Gal(b1-4)GlcNAc(b1-2)Man
# How it was run: as §1
# [25] = biological target: Neu5Ac(a2-6)Gal(b1-4)GlcNAc(b1-2)Man(a1-3)Man(b1-4)GlcNAc(b1-4)GlcNAc
# How it was run: as §1
# [26] = biological target: Neu5Ac(a2-6)Gal(b1-4)GlcNAc(b1-2)Man(a1-3)[Gal(b1-4)GlcNAc(b1-2)Man(a1-6)]Man(b1-4)GlcNAc(b1-4)GlcNAc
# How it was run: as §1
# [27] = biological target: Neu5Ac(a2-6)Gal(b1-4)GlcNAc(b1-2)Man(a1-3)[GlcNAc(b1-4)][Neu5Ac(a2-6)Gal(b1-4)GlcNAc(b1-2)Man(a1-6)]Man(b1-4)GlcNAc(b1-4)GlcNAc
# How it was run: as §1
# [28] = biological target: Neu5Ac(a2-6)Gal(b1-4)GlcNAc(b1-2)Man(a1-3)[Man(a1-6)]Man(b1-4)GlcNAc(b1-4)GlcNAc
# How it was run: as §1
# [29] = biological target: Neu5Ac(a2-6)Gal(b1-4)GlcNAc(b1-2)Man(a1-3)[Neu5Ac(a2-3)Gal(b1-4)GlcNAc(b1-2)Man(a1-6)]Man(b1-4)GlcNAc(b1-4)GlcNAc
# How it was run: as §1
# [30] = biological target: Neu5Ac(a2-6)Gal(b1-4)GlcNAc(b1-2)Man(a1-3)[Neu5Ac(a2-6)Gal(b1-4)GlcNAc(b1-2)Man(a1-6)]Man(b1-4)GlcNAc(b1-4)GlcNAc
# How it was run: as §1
# [31] = biological target: Neu5Ac(a2-6)Gal(b1-4)GlcNAc(b1-2)Man(a1-3)[Neu5Ac(a2-6)Gal(b1-4)GlcNAc(b1-2)Man(a1-6)]Man(b1-4)GlcNAc(b1-4)[Fuc(a1-6)]GlcNAc
# How it was run: as §1
# [32] = biological target: Neu5Ac(a2-6)Gal(b1-4)GlcNAc(b1-2)Man(a1-6)Man(b1-4)GlcNAc(b1-4)GlcNAc
# How it was run: as §1
# [33] = biological target: Neu5Ac(a2-6)Gal(b1-4)GlcNAc(b1-2)Man(a1-6)[Gal(b1-4)GlcNAc(b1-2)Man(a1-3)]Man(b1-4)GlcNAc(b1-4)GlcNAc
# How it was run: as §1
# [34] = biological target: Neu5Ac(a2-6)Gal(b1-4)GlcNAc(b1-2)Man(a1-6)[GlcNAc(b1-2)Man(a1-3)]Man(b1-4)GlcNAc(b1-4)GlcNAc
# How it was run: as §1
# [35] = biological target: Neu5Ac(a2-6)Gal(b1-4)GlcNAc(b1-2)Man(a1-6)[Man(a1-3)]Man(b1-4)GlcNAc(b1-4)GlcNAc
# How it was run: as §1
# [36] = biological target: Neu5Ac(a2-6)Gal(b1-4)GlcNAc(b1-2)[Neu5Ac(a2-6)Gal(b1-4)GlcNAc(b1-4)]Man(a1-3)[GlcNAc(b1-4)][Neu5Ac(a2-6)Gal(b1-4)GlcNAc(b1-2)[Neu5Ac(a2-6)Gal(b1-4)GlcNAc(b1-6)]Man(a1-6)]Man(b1-4)GlcNAc(b1-4)GlcNAc
# How it was run: as §1
# [37] = biological target: Neu5Ac(a2-6)Gal(b1-4)GlcNAc(b1-2)[Neu5Ac(a2-6)Gal(b1-4)GlcNAc(b1-4)]Man(a1-3)[GlcNAc(b1-4)][Neu5Ac(a2-6)Gal(b1-4)GlcNAc(b1-4)Man(a1-6)]Man(b1-4)GlcNAc(b1-4)GlcNAc
# How it was run: as §1
# [38] = biological target: Neu5Ac(a2-6)Gal(b1-4)GlcNAc(b1-2)[Neu5Ac(a2-6)Gal(b1-4)GlcNAc(b1-6)]Man(a1-6)[Neu5Ac(a2-6)Gal(b1-4)GlcNAc(b1-2)Man(a1-3)][GlcNAc(b1-4)]Man(b1-4)GlcNAc(b1-4)GlcNAc
# How it was run: as §1
# [39] = biological target: Neu5Ac(a2-6)Gal(b1-4)GlcNAc(b1-3)Gal(b1-3)GlcNAc
# How it was run: as §1
# [40] = biological target: Neu5Ac(a2-6)Gal(b1-4)GlcNAc(b1-3)Gal(b1-4)GlcNAc
# How it was run: as §1
# [41] = biological target: Neu5Ac(a2-6)Gal(b1-4)GlcNAc(b1-3)Gal(b1-4)GlcNAc(b1-2)Man(a1-3)[Neu5Ac(a2-6)Gal(b1-4)GlcNAc(b1-3)Gal(b1-4)GlcNAc(b1-2)Man(a1-6)]GalNAc
# How it was run: as §1
# [42] = biological target: Neu5Ac(a2-6)Gal(b1-4)GlcNAc(b1-3)Gal(b1-4)GlcNAc(b1-3)Gal(b1-4)GlcNAc
# How it was run: as §1
# [43] = biological target: Neu5Ac(a2-6)Gal(b1-4)GlcNAc(b1-3)Gal(b1-4)GlcNAc(b1-3)Gal(b1-4)GlcNAc(b1-2)Man(a1-3)[Neu5Ac(a2-6)Gal(b1-4)GlcNAc(b1-3)Gal(b1-4)GlcNAc(b1-3)Gal(b1-4)GlcNAc(b1-2)Man(a1-6)]GalNAc
# How it was run: as §1
binder,measurement,setting,value
B1,glycan array binding signal (z-score),[1],-0.377
same,glycan array binding signal (z-score),[2],-0.433
same,glycan array binding signal (z-score),[3],-0.065
same,glycan array binding signal (z-score),[4],-0.553
same,glycan array binding signal (z-score),[5],-0.783
same,glycan array binding signal (z-score),[6],-0.573
same,glycan array binding signal (z-score),[7],-0.6
same,glycan array binding signal (z-score),[8],-0.471
same,glycan array binding signal (z-score),[9],1.25
same,glycan array binding signal (z-score),[10],0.389
same,glycan array binding signal (z-score),[11],1.62
same,glycan array binding signal (z-score),[12],1
same,glycan array binding signal (z-score),[13],1.3
same,glycan array binding signal (z-score),[14],-0.478
same,glycan array binding signal (z-score),[15],-0.663
same,glycan array binding signal (z-score),[16],-0.211
same,glycan array binding signal (z-score),Neu5Ac(a2-3)GalNAc,-0.184
same,glycan array binding signal (z-score),[17],-0.746
same,glycan array binding signal (z-score),[18],-0.437
same,glycan array binding signal (z-score),[19],-0.543
same,glycan array binding signal (z-score),[20],-0.229
same,glycan array binding signal (z-score),[21],0.531
same,glycan array binding signal (z-score),Neu5Ac(a2-6)Gal,-0.662
same,glycan array binding signal (z-score),[22],-0.247
same,glycan array binding signal (z-score),Neu5Ac(a2-6)Gal(b1-4)Glc,-0.373
same,glycan array binding signal (z-score),[23],-0.346
same,glycan array binding signal (z-score),[24],-0.022
same,glycan array binding signal (z-score),[25],-0.478
same,glycan array binding signal (z-score),[26],0.309
same,glycan array binding signal (z-score),[27],-0.221
same,glycan array binding signal (z-score),[28],-0.264
same,glycan array binding signal (z-score),[29],-0.375
same,glycan array binding signal (z-score),[30],0.15
same,glycan array binding signal (z-score),[31],0.696
same,glycan array binding signal (z-score),[32],-0.68
same,glycan array binding signal (z-score),[33],-0.648
same,glycan array binding signal (z-score),[34],-0.416
same,glycan array binding signal (z-score),[35],-0.401
same,glycan array binding signal (z-score),[36],-0.265
same,glycan array binding signal (z-score),[37],-0.269
same,glycan array binding signal (z-score),[38],-0.386
same,glycan array binding signal (z-score),[39],-0.117
same,glycan array binding signal (z-score),[40],-0.592
same,glycan array binding signal (z-score),[41],-0.261
same,glycan array binding signal (z-score),[42],-0.504
same,glycan array binding signal (z-score),[43],0.962
